# From article PMC5892938
# The list shows a part of the results. At the low end of the ranking the order means little.
# Biological target: GST-SBP-SLBP (stem-loop binding protein) (UniProt Q14493)
# Experiment: targeted RNA Bind-n-Seq;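 also: DESeq read counts versus GST-SBP nonspecific binding control pulldown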
# Conditions: RBNS binding buffer: 25 mM Tris pH 7.5, 150 mM KCl, 3 mM MgCl2, 0.1% Tween, 0.5 mg/mL BSA, 1 mM DTT; 27 nM protein, 750 pM RNA pool; temperature not stated; high values mean tight binding
row,Sequence,binding signal (log2 fold change)
1,GGUCACGUCUCAAUCAACUCUAUAGAGGGGGGGAAAACCCCUUUGCCCUCACAAUCAACAGCUCGCAGUCAAG,-0.318
2,GGUCACGUCUCAAUCAACUCUUUUUCCAGGGAAAACCCUGGCUAAUUCAACAGCUCGCAGUCAAG,-0.371
3,GGUCACGUCUCAAUCAACUCUUUUUCAGGAGUUUACUCCUGCUAUCUCAACAGCUCGCAGUCAAG,0.178
4,GGUCACGUCUCAAUCAACUCAUCUCCCAGGGAAACCCCUGGCAUUUUCAACAGCUCGCAGUCAAG,-0.34
5,GGUCACGUCUCAAUCAACUCUUCCUCAGGAGUUUACUCCUGUUUAUUCAACAGCUCGCAGUCAAG,0.00555
6,GGUCACGUCUCAAUCAACUCUUUUUCAGGAGUUUUCUCCUGCAUUUUCAACAGCUCGCAGUCAAG,0.0694
7,GGUCACGUCUCAAUCAACUCUACUUCCAGGGAAACCCCUGGCAUAUUCAACAGCUCGCAGUCAAG,-0.314
8,GGUCACGUCUCAAUCAACUCCCUCGAGGGGGGGAAAACCCCUUUACCCUCACUCUCAACAGCUCGCAGUCAAG,0.0176
9,GGUCACGUCUCAAUCAACUCUAUUCCCAGGGAAAGCCCUGGUUUACUCAACAGCUCGCAGUCAAG,0.134
10,GGUCACGUCUCAAUCAACUCAAUCCCAGGAGUUUCCUCCUGCUAUCUCAACAGCUCGCAGUCAAG,0.0751
11,GGUCACGUCUCAAUCAACUCAAUUUCAGGAGUUUGCUCCUGCUUAUUCAACAGCUCGCAGUCAAG,-0.066
12,GGUCACGUCUCAAUCAACUCUUUUUCCAGGGAAAGCCCUGGUUUUUUCAACAGCUCGCAGUCAAG,-0.0886
13,GGUCACGUCUCAAUCAACUCAUCUUCAGGAGUUUACUCCUGCUUAGUCAACAGCUCGCAGUCAAG,0.342
14,GGUCACGUCUCAAUCAACUCCCCAGAGGGGGGGAAAACCCCUUUGCCCUCACAAUCAACAGCUCGCAGUCAAG,0.0366
15,GGUCACGUCUCAAUCAACUCAACUCCCAGGGAAAUCCCUGGCAAUUUCAACAGCUCGCAGUCAAG,0.115
16,GGUCACGUCUCAAUCAACUCAUCUCCCAGGGAAAACCCUGGUUUUCUCAACAGCUCGCAGUCAAG,-0.0692
17,GGUCACGUCUCAAUCAACUCCUUAGAGGGGGGGAAAACCCCUUUACCCUCAACUUCAACAGCUCGCAGUCAAG,0.489
18,GGUCACGUCUCAAUCAACUCUUCUUCCAGGGAAACCCCUGGUUAUUUCAACAGCUCGCAGUCAAG,-0.0217
19,GGUCACGUCUCAAUCAACUCUCUCGAGGGGGGGAAAACCCCUUUACCCUCUCAUUCAACAGCUCGCAGUCAAG,-0.417
20,GGUCACGUCUCAAUCAACUCUCCCGAGGGGGGGAAAACCCCUUUGCCCUCAUCAUCAACAGCUCGCAGUCAAG,-0.0262
